Whole data set: some 33,000 sequences, median “E-score (-0.5 to 0.5)” near -0.021, cut for the highest 2% near 0.32. The list shows a part of the results.
Each sequence was assayed against T1, Zap1 (UniProt P47043) (assay: PBM E-score (8-mer binding enrichment) (E-score (-0.5 to 0.5)); higher = stronger / more preferred TF binding; most listed sequences are background and not binding sites). Details: protein concentration: 200 nM; construct: GST-full length.
T1 sequence: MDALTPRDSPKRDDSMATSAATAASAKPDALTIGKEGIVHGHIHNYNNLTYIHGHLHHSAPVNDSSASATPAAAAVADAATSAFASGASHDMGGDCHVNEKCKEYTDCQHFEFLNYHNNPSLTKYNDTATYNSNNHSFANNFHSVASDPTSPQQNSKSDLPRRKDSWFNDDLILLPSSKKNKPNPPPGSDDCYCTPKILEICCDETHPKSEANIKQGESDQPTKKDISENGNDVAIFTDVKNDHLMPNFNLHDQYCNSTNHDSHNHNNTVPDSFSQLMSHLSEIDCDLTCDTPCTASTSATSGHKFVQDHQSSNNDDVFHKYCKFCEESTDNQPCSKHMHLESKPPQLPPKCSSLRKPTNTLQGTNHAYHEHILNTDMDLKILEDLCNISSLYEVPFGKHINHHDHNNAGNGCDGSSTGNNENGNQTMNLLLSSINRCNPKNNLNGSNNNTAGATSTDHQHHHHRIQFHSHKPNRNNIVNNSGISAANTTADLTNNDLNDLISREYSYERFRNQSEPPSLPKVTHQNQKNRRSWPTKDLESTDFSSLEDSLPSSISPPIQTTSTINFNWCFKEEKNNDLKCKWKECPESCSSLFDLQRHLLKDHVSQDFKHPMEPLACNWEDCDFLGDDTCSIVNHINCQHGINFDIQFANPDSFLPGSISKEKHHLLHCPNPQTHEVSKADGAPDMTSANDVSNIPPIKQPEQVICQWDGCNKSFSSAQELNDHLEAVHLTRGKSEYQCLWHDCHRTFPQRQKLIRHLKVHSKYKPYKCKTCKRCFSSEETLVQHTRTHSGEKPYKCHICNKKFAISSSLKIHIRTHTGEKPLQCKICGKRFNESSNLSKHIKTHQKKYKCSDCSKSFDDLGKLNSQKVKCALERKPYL
In short: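 PURExpress in vitro transcription/translation supplied GST-tagged yeast transcription factors, either full-length or DNA-binding domain. Applied at about 100-200 nM to universal all-10-mer Agilent arrays double-stranded by primer extension, the bound protein was detected with fluorescent anti-GST. E-scores, modified Wilcoxon-Mann-Whitney statistics, were given by the Universal PBM Analysis Suite to ungapped eight-base words pooled with their reverse complements after masliner normalisation.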

Row | Sequence | PBM E-score
1 | GTTAACAA | 0.095
2 | AAGACGGA | 0.0457
3 | CTCGACCC | 0.0825
4 | TATCTGAA | 0.0676
5 | GAAGAGAA | -0.0643
6 | AATTTCGA | -0.179
7 | ATAGGAGC | -0.15
8 | GTAGATTA | 0.291
9 | CTAGACAC | -0.174
10 | CCTAATTC | -0.0585
11 | ATAGGCTA | -0.0389
12 | AAAAACCG | 0.227
13 | TGCAGGAA | 0.118
14 | AAGCACTA | -0.0287
15 | CACTAGGA | -0.102
16 | TATTGGCA | -0.00632
17 | GCTCCTTA | -0.303
18 | TCGCCCCA | -0.0608
19 | AACTACGA | -0.0625
20 | CCTCCGAC | -0.0986
21 | GGAGCGCC | -0.21
22 | CCACTACC | 0.178
23 | CTAACACA | 0.112
24 | CCCGAGCC | -0.165
25 | ATGTTAGA | -0.079

Row | Sequence | PBM E-score
26 | CTATTATA | 0.131
27 | AACAGGAA | -0.0406
28 | CATCTGTC | -0.365
29 | CCAGTCCA | -0.231
30 | CCCAAATC | 0.0953
31 | CCAGGATC | -0.0208
32 | ATCACTCG | -0.0731
33 | AGCTGCAG | -0.109
34 | CCTAAAGG | 0.274
35 | GTTTTAGA | 0.0545
36 | AGACTGCA | -0.135
37 | AGCAGGTC | 0.0487
38 | ACAATTGA | 0.0986
39 | ACGCAGAA | -0.0213
40 | GTTTAAGA | -0.0185
41 | ACCGCAGC | 0.0473
42 | CTCTCAGC | -0.273
43 | AGTTTGAA | 0.1
44 | CCCGCTCG | -0.152
45 | AGATTAAC | 0.106
46 | ATACCAGG | 0.172
47 | CCACGGGC | -0.123
48 | ATAGTACG | 0.0877
49 | ATTGGACA | 0.146
50 | CAATGATC | -0.00842

Row | Sequence | PBM E-score
51 | AAGCCAAG | -0.0223
52 | CATCGATG | 0.268
53 | CACACGGA | -0.104
54 | GGGCTACC | 0.0784
55 | CTGCGACA | -0.0281
56 | AGCTCTAA | 0.107
57 | CTCAAGAG | -0.0685
58 | AGACACCT | -0.131
59 | CACTAATA | 0.148
60 | AGCATGCA | -0.207
61 | ATATTGTA | 0.133
62 | CCTTACCG | 0.285
63 | ATGTAGAC | -0.184
64 | ATAGTTAG | 0.19
65 | GTATTGTA | 0.028
66 | TAGGATGA | -0.031
67 | CACGTGCG | -0.155
68 | CACCTCCA | 0.0381
69 | TAACAACA | 0.166
70 | CTTGTTGC | -0.0552
71 | ATTAGCCG | -0.0639
72 | ACCATAGC | 0.0843
73 | AAAAATTC | 0.0351
74 | ACACGTTA | 0.0252
75 | AAAAGCAC | -0.105

Row | Sequence | PBM E-score
76 | ATAATCAG | 0.0352
77 | CATGGGTA | 0.312
78 | CGTATGAC | 0.16
79 | GTCTGGTA | 0.146
80 | GGCTCGAA | -0.29
81 | TCTACCCA | 0.042
82 | GATGAAGC | -0.0197
83 | GAGGACCC | 0.0553
84 | CCGCTGTC | -0.125
85 | CACGTAAG | -0.188
86 | AAGCCTGC | -0.182
87 | TATACCGA | 0.0956
88 | CCAGCAAA | 0.0791
89 | ATTGACAA | -0.0303
90 | AAATACTA | 0.217
91 | AAATTTGC | -0.0283
92 | AGGGGCGG | 0.0331
93 | ATAGCTGG | -0.111
94 | ACCTAGCG | -0.134
95 | CAATAGGG | 0.193
96 | CGAGTCCC | -0.0387
97 | AAACCCAC | 0.189
98 | ACATTGTC | 0.0192
99 | ACAATAAT | 0.165
100 | CGACCTCG | 0.131

Row | Sequence | PBM E-score
101 | TCACGAGA | -0.106
102 | CACTCCTG | -0.154
103 | ACTGAAGC | -0.00667
104 | GCACCAGA | -0.0904
105 | AGCCGCAA | -0.0728
106 | CCGCTTTC | -0.0504
107 | GGGCTTCA | -0.177
108 | ATAGTCAG | -0.132
109 | CAAACGCG | -0.0415
110 | AATTAACG | 0.0584
111 | GCGTTAGA | -0.14
112 | ATTACCTC | 0.32
113 | AACGCGAC | -0.146
114 | ATGCAAAG | -0.0952
115 | TGCCGACA | -0.162
116 | TACAAGCA | -0.0534
117 | CCATTGTA | 0.116
118 | AATGCACT | -0.0483
119 | CCCGAAAC | 0.073
120 | ACGTATAT | -0.133
121 | ATCTGGTC | 0.0918
122 | TGATGCAA | 0.0286
123 | GACAAACA | -0.0271
124 | ACCCGGAA | 0.307
125 | CATCCCCG | -0.075

Row | Sequence | PBM E-score
126 | TATTTAGA | 0.168
127 | GTCTAGAA | 0.0226
128 | CTGAAGGC | -0.056
129 | CAAAATTC | 0.0877
130 | ATGATAGC | 0.107
131 | AAAGCCCA | -0.0779
132 | GAAAGTCA | -0.0232
133 | AAGAATTA | -0.00623
134 | GGATGCGA | -0.271
135 | CTTATCAC | -0.0236
136 | AGGAAACT | -0.132
137 | ATTCCATC | 0.00145
138 | ACCCTATA | 0.354
139 | GGCCTTAC | -0.07
140 | AAAGATAA | 0.216
141 | CGGGCGGA | -0.101
142 | CAGGACCG | -0.133
143 | AAATGATC | -0.0669
144 | CGGGCTCC | -0.363
145 | CTACAGGA | 0.0575
146 | GCCAATTA | -0.0384
147 | ACGTTTAG | -0.172
148 | ATGCTTCG | -0.117
149 | CGTGTGTC | -0.201
150 | ACAGGATC | -0.203

Row | Sequence | PBM E-score
151 | CTCACGTC | 0.0181
152 | CGGGACTA | -0.115
153 | AAAATATG | 0.102
154 | GAAACGAA | 0.127
155 | CCACATGA | -0.0552
156 | GAAGTGAC | -0.00157
157 | CCCAATTA | 0.116
158 | CGAAGGGC | -0.193
159 | AAACGAGT | -0.0933
160 | CTCAATGC | -0.168
161 | AGTTTCAA | 0.0343
162 | ATGTTGAA | 0.0888
163 | AACGATGC | -0.245
164 | AGCTCCTC | -0.225
165 | CCGTGCCC | -0.189
166 | CCCCACGA | -0.0491
167 | CATGAGGA | -0.0216
168 | GACATTAA | 0.15
169 | TCCACGAA | 0.111
170 | TACAGCTA | -0.137
171 | CGACTTGC | -0.275
172 | ACAATGAT | 0.118
